{
  "source": "paper PMC6664820",
  "about": "“Novel natural and synthetic inhibitors of solute carriers SGLT1 and SGLT2” (Pharmacology Research & Perspectives, 2019)",
  "note": "The campaign covered roughly 1,900 compounds. About 40 (2%) showed an effect of 50% or more. Some of the results follow.",
  "data": [
    {"target": "human SGLT1 (hSGLT1) (human, UniProt P13866)", "sequence (P13866 whole entry, looked up)": "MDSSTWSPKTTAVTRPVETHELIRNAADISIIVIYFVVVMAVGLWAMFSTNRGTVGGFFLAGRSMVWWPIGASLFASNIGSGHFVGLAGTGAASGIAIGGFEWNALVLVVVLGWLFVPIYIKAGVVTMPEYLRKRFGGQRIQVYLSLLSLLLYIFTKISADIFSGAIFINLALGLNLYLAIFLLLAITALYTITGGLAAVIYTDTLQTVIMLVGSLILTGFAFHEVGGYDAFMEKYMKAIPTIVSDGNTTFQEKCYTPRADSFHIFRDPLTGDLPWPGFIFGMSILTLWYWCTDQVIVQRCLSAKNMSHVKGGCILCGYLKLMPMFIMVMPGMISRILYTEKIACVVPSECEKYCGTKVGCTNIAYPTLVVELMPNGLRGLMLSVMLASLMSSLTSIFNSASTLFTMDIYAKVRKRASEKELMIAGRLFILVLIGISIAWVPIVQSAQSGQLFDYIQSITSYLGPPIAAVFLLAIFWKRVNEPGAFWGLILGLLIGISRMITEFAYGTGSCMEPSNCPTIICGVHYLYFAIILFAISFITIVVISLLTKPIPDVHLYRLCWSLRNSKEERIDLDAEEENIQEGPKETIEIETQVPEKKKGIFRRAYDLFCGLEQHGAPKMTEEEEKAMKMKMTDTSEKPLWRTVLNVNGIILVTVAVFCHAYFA", "assay": "primary screen, percent of control activity; higher = less effect of the substance", "parameters": "single well", "conditions": "50 µM", "outline": "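Single-point screen at 50 µmol/L in CHO-hSGLT1 cells, with 160 µmol/L 1-NBD-glucose in glucose-free DMEM for 90 min at 37°C. Fluorescence from isopropanol extracts was calibrated, and CHO wild-type uptake was subtracted. Data are percent of uptake without compound.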", "units": {"NORMALIZED SGLT1 ACTIVITY (%)": "%"}, "values": [
      {"compound": "COC(=O)C[C@H]1C(C)(C)C(=O)[C@@H]2CC3=C4CC(OC)O[C@@H](c5ccoc5)[C@]4(C)CCC3[C@@]1(C)C2=O", "note": "(stereo partly shown)", "NORMALIZED SGLT1 ACTIVITY (%)": 105},
      {"compound": "C[C@](N)(Cc1ccc(O)cc1)C(=O)O", "NORMALIZED SGLT1 ACTIVITY (%)": 94},
      {"compound": "Oc1ccc2c(c1)O[C@H](c1ccc(O)c(O)c1)[C@@H](O)C2", "NORMALIZED SGLT1 ACTIVITY (%)": 103},
      {"compound": "COc1ccc2c(=O)cc(-c3ccccc3OC)oc2c1", "NORMALIZED SGLT1 ACTIVITY (%)": 139},
      {"compound": "CN1CCCN=C1/C=C/c1cccs1.O=C(O)c1cc2ccccc2c(Cc2c(O)c(C(=O)O)cc3ccccc23)c1O", "NORMALIZED SGLT1 ACTIVITY (%)": 129},
      {"compound": "O=C([O-])c1cc(=O)c2c(OCC(O)COc3cccc4oc(C(=O)[O-])cc(=O)c34)cccc2o1.[Na+].[Na+]", "NORMALIZED SGLT1 ACTIVITY (%)": 101},
      {"compound": "Nc1ccc(C(=O)[O-])cc1.[K+]", "NORMALIZED SGLT1 ACTIVITY (%)": 92},
      {"compound": "CCCCCC/C=C\\CCCCCCCc1cccc(O)c1C(=O)O", "NORMALIZED SGLT1 ACTIVITY (%)": 149},
      {"compound": "NCCc1c[nH]c2ccccc12", "NORMALIZED SGLT1 ACTIVITY (%)": 123},
      {"compound": "C=C1c2c(Cl)ccc(O)c2C(=O)C2=C(O)[C@]3(O)C(=O)C(C(N)=O)=C(O)[C@@H](N(C)C)[C@@H]3[C@@H](O)[C@H]12.O=C(O)c1cc(S(=O)(=O)O)ccc1O", "NORMALIZED SGLT1 ACTIVITY (%)": 93},
      {"compound": "CCC(=O)O[C@H]1CC[C@H]2[C@@H]3CCc4cc(O)ccc4[C@H]3CC[C@]12C", "NORMALIZED SGLT1 ACTIVITY (%)": 95},
      {"compound": "Oc1c(Br)cc(Br)c2cccnc12", "NORMALIZED SGLT1 ACTIVITY (%)": 50},
      {"compound": "c1cc2c(cc1[C@H]1OC[C@H]3[C@@H]1CO[C@H]3c1ccc3c(c1)OCO3)OCO2", "NORMALIZED SGLT1 ACTIVITY (%)": 185},
      {"compound": "CC1C[C@H]2CC(=O)[C@H]3CCCN4CCC[C@H]2[C@]34C1.[O-][Cl+3]([O-])([O-])O", "note": "(stereo partly shown)", "NORMALIZED SGLT1 ACTIVITY (%)": 133},
      {"compound": "Cl.NCc1ccc(S(N)(=O)=O)cc1", "NORMALIZED SGLT1 ACTIVITY (%)": 120},
      {"compound": "NC(=O)c1ccccc1O", "NORMALIZED SGLT1 ACTIVITY (%)": 146},
      {"compound": "O=c1cccc2n1CC1CC2CN2CCCC[C@@H]12.[O-][Cl+3]([O-])([O-])O", "note": "(stereo partly shown)", "NORMALIZED SGLT1 ACTIVITY (%)": 114},
      {"compound": "COc1cc(-c2coc3cc(OC)c(OC)c(OC)c3c2=O)cc(OC)c1OC", "NORMALIZED SGLT1 ACTIVITY (%)": 193},
      {"compound": "CC(=O)O[C@@H]1CC[C@@]2(C)C(CC[C@]3(C)C2CC=C2C4CC(C)(C)CC[C@]4(C(=O)O)CC[C@]23C)C1(C)C", "note": "(stereo partly shown)", "NORMALIZED SGLT1 ACTIVITY (%)": 141},
      {"compound": "C/C=C(\\C)C(=O)O[C@H]1C[C@@H](OC(C)=O)[C@@]2(C(=O)OC)CO[C@@H]3C2[C@]12CO[C@](O)(C(=O)OC)[C@H]2[C@](C)(C12O[C@@]1(C)[C@H]1C[C@@H]2OC2OC=C[C@@]21O)[C@@H]3O", "note": "(stereo partly shown)", "NORMALIZED SGLT1 ACTIVITY (%)": 96},
      {"compound": "CC(C)(Oc1ccc(CCNC(=O)c2ccc(Cl)cc2)cc1)C(=O)O", "NORMALIZED SGLT1 ACTIVITY (%)": 113},
      {"compound": "CCOC(=O)C1=C(COCCN)NC(C)=C(C(=O)OC)C1c1ccccc1Cl.O=S(=O)(O)c1ccccc1", "note": "(stereo not shown)", "NORMALIZED SGLT1 ACTIVITY (%)": 99},
      {"compound": "CN1CCN(CCCN2c3ccccc3Sc3ccc(C(F)(F)F)cc32)CC1.Cl.Cl", "NORMALIZED SGLT1 ACTIVITY (%)": 61},
      {"compound": "CCC(C)C(=O)OC1[C@@H]2CC3=C4CC(=O)O[C@@H](c5ccoc5)[C@]4(C)CCC3[C@@](C)(C2=O)[C@@H](CC(=O)OC)C1(C)C", "note": "(stereo partly shown)", "NORMALIZED SGLT1 ACTIVITY (%)": 116},
      {"compound": "C[C@@H]1CC[C@H]2C(C)(C)[C@H]3C[C@@]12CC[C@@]3(C)O", "NORMALIZED SGLT1 ACTIVITY (%)": 112},
      {"compound": "CN(C)CCC(c1ccc(Br)cc1)c1ccccn1.O=C(O)/C=C\\C(=O)O", "note": "(stereo not shown)", "NORMALIZED SGLT1 ACTIVITY (%)": 72},
      {"compound": "COC(=O)COc1cc(Cl)c(Cl)cc1Cl", "NORMALIZED SGLT1 ACTIVITY (%)": 135},
      {"compound": "COc1cc(C)c(C(=O)O)c(O)c1", "NORMALIZED SGLT1 ACTIVITY (%)": 137},
      {"compound": "CO[C@H]1/C=C/O[C@@]2(C)Oc3c(C)c(O)c4c(O)c(c(/C=N/N5CCN(C)CC5)c(O)c4c3C2=O)NC(=O)/C(C)=C\\C=C\\[C@H](C)[C@H](O)[C@@H](C)[C@@H](O)[C@@H](C)[C@H](OC(C)=O)[C@@H]1C", "NORMALIZED SGLT1 ACTIVITY (%)": 92},
      {"compound": "C=CC(C1=CC(=O)C(OC)=CC1=O)c1ccc(O)cc1", "note": "(stereo not shown)", "NORMALIZED SGLT1 ACTIVITY (%)": 321},
      {"compound": "O=C1CCCC2C3CC(CN12)[C@@H]1CCCCN1C3.[O-][Cl+3]([O-])([O-])O", "note": "(stereo partly shown)", "NORMALIZED SGLT1 ACTIVITY (%)": 97},
      {"compound": "CC(=O)/N=c1\\sc(S(N)(=O)=O)nn1C", "NORMALIZED SGLT1 ACTIVITY (%)": 90},
      {"compound": "Nc1ccc(S(=O)(=O)Nc2ccnn2-c2ccccc2)cc1", "NORMALIZED SGLT1 ACTIVITY (%)": 99},
      {"compound": "O=C(O)CCCCC1CCSS1", "note": "(stereo not shown)", "NORMALIZED SGLT1 ACTIVITY (%)": 239},
      {"compound": "COC(=O)C[C@H]1C2(C)CC34OC5(C)O[C@@]6([C@H](OC)C(OC(=O)C(C)C)[C@]7(C)C(/C(=C(/OC)C(C)C)C(=O)O[C@H]7c7ccoc7)[C@@]6(O5)[C@H](OC)[C@@]3(OC)C2OC(C)=O)[C@]14C", "note": "(stereo partly shown)", "NORMALIZED SGLT1 ACTIVITY (%)": 135},
      {"compound": "Cc1cc(C(C)(C)C)c(O)c(C(C)(C)C)c1", "NORMALIZED SGLT1 ACTIVITY (%)": 112},
      {"compound": "Cc1nc2ccccn2c(=O)c1CCN1CCC(C(=O)c2ccc(F)cc2)CC1", "NORMALIZED SGLT1 ACTIVITY (%)": 129},
      {"compound": "CC1(C)O[C@H]2CC(=O)OC[C@]23[C@H]2CC[C@@]4(C)[C@H](c5ccoc5)OC(=O)[C@H]5O[C@]54[C@]2(C)C(=O)C[C@@H]13", "NORMALIZED SGLT1 ACTIVITY (%)": 100},
      {"compound": "CCCCCCCCCCCCCCCCCCOCC(O)CO", "note": "(stereo not shown)", "NORMALIZED SGLT1 ACTIVITY (%)": 96},
      {"compound": "C[n+]1c2cc(N)ccc2cc2ccc(N)cc21.[Cl-]", "NORMALIZED SGLT1 ACTIVITY (%)": 169},
      {"compound": "CC1=NCCc2c1[nH]c1cc(O)ccc21.Cl", "NORMALIZED SGLT1 ACTIVITY (%)": 160},
      {"compound": "COC1=C[C@@H](C)[C@@H]2C[C@H]3OC(=O)C[C@H]4C(C)=C(OC)C(=O)[C@H]([C@@]2(C)C1=O)[C@@]34C", "NORMALIZED SGLT1 ACTIVITY (%)": 110},
      {"compound": "N=C(N)c1ccc(OCCCCCOc2ccc(C(=N)N)cc2)cc1.O=S(=O)(O)CCO.O=S(=O)(O)CCO", "NORMALIZED SGLT1 ACTIVITY (%)": 207},
      {"compound": "CCCCOc1ccc(C(=O)CCN2CCCCC2)cc1.Cl", "NORMALIZED SGLT1 ACTIVITY (%)": 206},
      {"compound": "CC1(C)C(=O)C=C[C@@]2(C)C1CC(=O)[C@]1(C)C2CC[C@@]2(C)[C@H](c3ccoc3)OC(=O)[C@H]3O[C@]321", "note": "(stereo partly shown)", "NORMALIZED SGLT1 ACTIVITY (%)": 80},
      {"compound": "CC(C1OC(C)(C)C(O)C1O)[C@@H]1CC[C@]2(C)C3=CCC4C(C)(C)C(=O)CC[C@]4(C)C3CC[C@@]12C", "note": "(stereo partly shown)", "NORMALIZED SGLT1 ACTIVITY (%)": 122},
      {"compound": "COC(=O)c1cc(O)c(=O)c2c(O)c(O)ccc2c1", "NORMALIZED SGLT1 ACTIVITY (%)": 121},
      {"compound": "CC(N)CCCC(C)(C)O.Cl", "note": "(stereo not shown)", "NORMALIZED SGLT1 ACTIVITY (%)": 88},
      {"compound": "CC(C)C(=O)Nc1ccc([N+](=O)[O-])c(C(F)(F)F)c1", "NORMALIZED SGLT1 ACTIVITY (%)": 285},
      {"compound": "CCOP(=S)(OCC)Oc1cc(C)nc(C(C)C)n1", "NORMALIZED SGLT1 ACTIVITY (%)": 107},
      {"compound": "C=CC(C1=CC(=O)C=CC1=O)c1ccccc1", "note": "(stereo not shown)", "NORMALIZED SGLT1 ACTIVITY (%)": 404},
      {"compound": "CCOC(N)=O", "NORMALIZED SGLT1 ACTIVITY (%)": 85},
      {"compound": "Cl.N=C(N)NC(=O)c1nc(Cl)c(N)nc1N", "NORMALIZED SGLT1 ACTIVITY (%)": 106},
      {"compound": "NNCCc1ccccc1.O=S(=O)(O)O", "NORMALIZED SGLT1 ACTIVITY (%)": 177},
      {"compound": "CN1CCN(CC/C=C2/c3ccccc3Sc3ccc(S(=O)(=O)N(C)C)cc32)CC1", "NORMALIZED SGLT1 ACTIVITY (%)": 116}
    ]}
  ]
}
